The values that follow come from patent publication US20250019440A1 (Zymeworks, published 2025).

One assay has as its target PD-L1 on cells (UniProt Q9NZQ7). As to the kind of experiment: cell-based or functional assay.
The target of assay [1] is T1, Human mesothelin (human, UniProt Q13421 296-580, limits assumed).
T1 construct: Amine-coupled to a CM5 chip for SPR; also called MSLN; recombinant human mesothelin
In words: SPR, mesothelin amine-coupled; apparent KD, variant binds mesothelin bivalently but was fit 1:1. On the technique in general: In SPR one partner is held on a chip, and binding of the other changes the refractive index at the surface.

The target in assay [2] is Human CD3 (recombinant) (human). In words: SPR, CD3 amine-coupled, variant as analyte, 1:1 model.
Assay [3] deals with T2, Human PD-L1 (human, UniProt Q9NZQ7 part only).
T2 construct: Amine-coupled to a CM5 chip for SPR; also called recombinant human PD-L1
As to the kind of experiment: SPR, PD-L1 amine-coupled, variant as analyte, 1:1 model.

Assay [4] addresses Human CD3 (recombinant) (human). In words: SPR, CD3 amine-coupled, variant as analyte, 1:1 model. This is another data set of the same source.
The target of assay [5] is T2, Human PD-L1. As to the kind of experiment: SPR, PD-L1 amine-coupled, variant as analyte, 1:1 model. This is another data set of the same source.
T2 sequence (Q9NZQ7 19-239 limits assumed): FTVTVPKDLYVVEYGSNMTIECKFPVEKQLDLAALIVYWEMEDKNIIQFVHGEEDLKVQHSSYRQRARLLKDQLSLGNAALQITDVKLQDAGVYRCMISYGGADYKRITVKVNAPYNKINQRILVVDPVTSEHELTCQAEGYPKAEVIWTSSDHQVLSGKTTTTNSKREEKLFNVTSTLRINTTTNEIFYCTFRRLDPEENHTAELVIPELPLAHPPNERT
The next assay has as its target T3, Cynomolgus monkey PD-L1 (cynomolgus monkey, UniProt G7PSE7 19-239).
T3 construct: Amine-coupled to a CM5 chip for SPR; also called recombinant cynomolgus monkey PD-L1
The description is as above.

A further assay deals with T4, Mouse PD-L1 (mouse, UniProt Q9EP73 part only, limits assumed).
T4 construct: Amine-coupled to a CM5 chip for SPR; also called recombinant mouse PD-L1
Described as above.

The target of assay [6] is T1, Human mesothelin. As to the kind of experiment: SPR, mesothelin amine-coupled, variant as analyte, 1:1 model.
T1 sequence (Q13421 other isoform, or with tags, fused parts or gaps limits assumed): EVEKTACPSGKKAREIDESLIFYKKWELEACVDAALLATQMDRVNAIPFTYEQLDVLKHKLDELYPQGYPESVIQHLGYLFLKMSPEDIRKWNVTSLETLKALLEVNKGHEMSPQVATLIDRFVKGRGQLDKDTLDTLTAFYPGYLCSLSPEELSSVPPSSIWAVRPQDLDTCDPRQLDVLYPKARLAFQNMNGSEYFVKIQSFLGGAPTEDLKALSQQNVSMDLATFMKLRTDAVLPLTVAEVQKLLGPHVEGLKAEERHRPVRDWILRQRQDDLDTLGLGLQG

Changes are numbered by the printed parent chain. Read-outs that look alike come from different tables or passages of the source.

Human CD3 (recombinant), sequence (chain, as listed by the source): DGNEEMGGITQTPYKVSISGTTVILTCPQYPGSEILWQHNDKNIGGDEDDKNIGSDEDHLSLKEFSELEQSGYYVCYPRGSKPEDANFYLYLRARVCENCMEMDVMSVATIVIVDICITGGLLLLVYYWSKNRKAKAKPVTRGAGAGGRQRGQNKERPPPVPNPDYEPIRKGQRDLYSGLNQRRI
PD-L1 on cells, sequence (Q9NZQ7 19-290 limits assumed): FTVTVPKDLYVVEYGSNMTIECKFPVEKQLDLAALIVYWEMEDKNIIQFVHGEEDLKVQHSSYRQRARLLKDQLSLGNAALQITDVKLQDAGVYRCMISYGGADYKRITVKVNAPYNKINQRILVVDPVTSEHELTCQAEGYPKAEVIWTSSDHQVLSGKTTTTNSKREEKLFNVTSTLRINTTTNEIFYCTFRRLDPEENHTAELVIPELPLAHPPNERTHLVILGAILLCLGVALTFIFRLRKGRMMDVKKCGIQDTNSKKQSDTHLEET
Mouse PD-L1, sequence (Q9EP73 19-238 limits assumed): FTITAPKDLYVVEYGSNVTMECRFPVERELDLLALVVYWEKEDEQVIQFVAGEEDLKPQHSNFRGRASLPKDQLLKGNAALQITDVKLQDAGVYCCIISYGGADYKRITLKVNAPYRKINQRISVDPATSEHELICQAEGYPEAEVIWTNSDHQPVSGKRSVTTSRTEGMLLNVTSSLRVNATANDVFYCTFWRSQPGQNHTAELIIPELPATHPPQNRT
Cynomolgus monkey PD-L1, sequence (G7PSE7 entry or part of it): as the sequence (Q9NZQ7 19-239 limits assumed) above, with A33T, A34S, S62N, R68Q, Q82R, F173L, T185A, T192I, H215L counted along it

B1: v39007 (other)
heavy 1: EVQLVESGGGLVQPGGSLRLSCAASGVTFNYYGMSWIRQAPGKGLEWVASITSSGGRIYYPDSVKGRFTISRENTQKTLYLQMNSLRAEDTAVYYCTLDGRDGWVAYWGQGTLVTVSSASTKGPSVFPLAPSSKSTSGGTAALGCLVKDYFPEPVTVSWNSGALTSGVHTFPAVLQSSGLYSLSSVVTVPSSSLGTQTYICNVNHKPSNTKVDKKVEPKSCDKTHTCPPCPAPEAAGGPSVFLFPPKPKDTLMISRTPEVTCVVVSVSHEDPEVKFNWYVDGVEVHNAKTKPREEQYNSTYRVVSVLTVLHQDWLNGKEYKCKVSNKALPAPIEKTISKAKGQPREPQVYVYPPSRDELTKNQVSLTCLVKGFYPSDIAVEWESNGQPENNYKTTPPVLDSDGSFALVSKLTVDKSRWQQGNVFSCSVMHEALHNHYTQKSLSLSPGGGGGSGQVQLVESGGGLVQPGGSLRLSCSVSGIDLSSNPMIWVRQAPGKGLQYIGIIDTDGSTYYADWAKGRFTISKDSTTVYLQINSPRAEDTAVYYCARRLHGSSNGYYDDLWGQGTLVTVSSGGGGSGGGGSGGGGSGGGGSDGQMTQSPSSVSASVGDRVTITCQASQSIYSYLSWYQQKPGQRPKLLIYKASTLASGVPSRFSGSGSGTDFTLTISSVQPEDFATYYCQQGYTVTNVDKNTFGGGTKVEIK
light: NFMLTQPHSVSESPGKTVTISCKRNTGNIGSNYVNWYQQHEGSSPTTIIYRNDKRPDGVSDRFSGSIDRSSKSASLTISNLKTEDEADYFCQSYSSGFIFGGGTKLTVLGQPKAAPSVTLFPPSSEELQANKATLVCLISDFYPGAVTVAWKADSSPVKAGVETTTPSKQSNNKYAASSYLSLTPEQWKSHRSYSCQVTHEGSTVEKTVAPTECSGGG[about 120 residues not shown]
heavy 2: QVQLVESGGGLVQPGGSLRLSCSVSGIDLSSNPMIWVRQAPGKGLQYIGIIDTDGSTYYADWAKGRFTISKDSTTVYLQINSPRAEDTAVYYCARRLHGSSNGYYDDLWGQGTLVTVSSGGGGSGGGGSGGGGSGGGGSDGQMTQSPSSVSASVGDRVTITCQASQSIYSYLSWYQQKPGQRPKLLIYKASTLASGVPSRFSGSGSGTDFTLTISSVQPEDFATYYCQQGYTVTNVDKNTFGGGTKVEIKAAEPKSSDKTHTCPPCPAPEAAGGPSVFLFPPKPKDTLMISRTPEVTCVVVSVSHEDPEVKFNWYVDGVEVHNAKTKPREEQYNSTYRVVSVLTVLHQDWLNGKEYKCKVSNKALPAPIEKTISKAKGQPREPQVYVLPPSRDELTKNQVSLLCLVKGFYPSDIAVEWESNGQPENNYLTWPPVLDSDGSFFLYSKLTVDKSRWQQGNVFSCSVMHEALHNHYTQKSLSLSPG
With B1, the “EC50 (read off the curve); hybrid PD-1/PD-L1 reporter gene assay, delta RLU, PD-1+ Jurkat T cells with SNU-620 cells, bottom right graph; composite signal of CD3 engagement and PD-1:PD-L1 blockade” value with PD-L1 on cells was approximately 0.01 nM.

B2: v38452 (other)
heavy 1: DIQMTQSPSSLSASVGDRVTITCSASSSVSYMHWYQQKSGKAPKLLIYDTSKLASGVPSRFSGSGSGTDFTLTISSLQPEDFATYYCQQWSGYPLTFGQGTKLEIKGGGGSGGGGSGGGGSGGGGSQVQLVQSGAEVKKPGASVKVSCKASGYSFTGYTMNWVRQAPGQGLEWMGLITPYNGASSYNQKFRGKATMTVDTSTSTVYMELSSLRSEDTAVYYCARGGYDGRGFDYWGQGTLVTVSSGGGGSGEVQLVESGGGLVQPGGSLRLSCAASGVTFNYYGMSWIRQAPGKGLEWVASITSSGGRIYYPDSVKGRFTISRENTQKTLYLQMNSLRAEDTAVYYCTLDGRDGWVAYWGQGTLVTVSSASTKGPSVFPLAPSSKSTSGGTAALGCLVKDYFPEPVTVSWNSGALTSGVHTFPAVLQSSGLYSLSSVVTVPSSSLGTQTYICNVNHKPSNTKVDKK[human IgG1 Fc with changes not shown]
light: NFMLTQPHSVSESPGKTVTISCKRNTGNIGSNYVNWYQQHEGSSPTTIIYRNDKRPDGVSDRFSGSIDRSSKSASLTISNLKTEDEADYFCQSYSSGFIFGGGTKLTVLGQPKAAPSVTLFPPSSEELQANKATLVCLISDFYPGAVTVAWKADSSPVKAGVETTTPSKQSNNKYAASSYLSLTPEQWKSHRSYSCQVTHEGSTVEKTVAPTECSGGG[about 120 residues not shown]
heavy 2: DIQMTQSPSSLSASVGDRVTITCSASSSVSYMHWYQQKSGKAPKLLIYDTSKLASGVPSRFSGSGSGTDFTLTISSLQPEDFATYYCQQWSGYPLTFGQGTKLEIKGGGGSGGGGSGGGGSGGGGSQVQLVQSGAEVKKPGASVKVSCKASGYSFTGYTMNWVRQAPGQGLEWMGLITPYNGASSYNQKFRGKATMTVDTSTSTVYMELSSLRSEDTAVYYCARGGYDGRGFDYWGQGTLVTVSSAAEPKSSDKTHTCPPCPAPEAAGGPSVFLFPPKPKDTLMISRTPEVTCVVVSVSHEDPEVKFNWYVDGVEVHNAKTKPREEQYNSTYRVVSVLTVLHQDWLNGKEYKCKVSNKALPAPIEKTISKAKGQPREPQVYVLPPSRDELTKNQVSLLCLVKGFYPSDIAVEWESNGQPENNYLTWPPVLDSDGSFFLYSKLTVDKSRWQQGNVFSCSVMHEALHNHYTQKSLSLSPG
With B2, the Kd with Human mesothelin [1] amounted to 0.12 nM; in the assay with Human CD3 (recombinant) [2] it was 38 nM; with Human PD-L1 [3], 8.8 nM.

B3: v38408 (other)
heavy 1: [about 120 residues not shown]GGGSGEVQLVESGGGLVQPGGSLRLSCAASGVTFNYYGMSWIRQAPGKGLEWVASITSSGGRIYYPDSVKGRFTISRENTQKTLYLQMNSLRAEDTAVYYCTLDGRDGWVAYWGQGTLVTVSSASTKGPSVFPLAPSSKSTSGGTAALGCLVKDYFPEPVTVSWNSGALTSGVHTFPAVLQSSGLYSLSSVVTVPSSSLGTQTYICNVNHKPSNTKVDKK[human IgG1 Fc with changes not shown]
light: NFMLTQPHSVSESPGKTVTISCKRNTGNIGSNYVNWYQQHEGSSPTTIIYRNDKRPDGVSDRFSGSIDRSSKSASLTISNLKTEDEADYFCQSYSSGFIFGGGTKLTVLGQPKAAPSVTLFPPSSEELQANKATLVCLISDFYPGAVTVAWKADSSPVKAGVETTTPSKQSNNKYAASSYLSLTPEQWKSHRSYSCQVTHEGSTVEKTVAPTECS
heavy 2: B1 heavy 2
With B3, the “EC50 (read off the curve); hybrid PD-1/PD-L1 reporter gene assay, delta RLU, PD-1+ Jurkat T cells with SNU-620 cells, top graph; composite signal of CD3 engagement and PD-1:PD-L1 blockade” value with PD-L1 on cells is approximately 0.01 nM. The Kd with Human CD3 (recombinant) [4] was determined as 84 nM; with Human PD-L1 [5], 3.7 nM; with Cynomolgus monkey PD-L1, 3.5 nM; with Mouse PD-L1, 8.1 nM.

B4: v38442 (other)
heavy 1: EVQLVESGGGLVQPGGSLRLSCAASGVTFNYYGMSWIRQAPGKGLEWVASITSSGGRIYYPDSVKGRFTISRENTQKTLYLQMNSLRAEDTAVYYCTLDGRDGWVAYWGQGTLVTVSSASTKGPSVFPLAPSSKSTSGGTAALGCLVKDYFPEPVTVSWNSGALTSGVHTFPAVLQSSGLYSLSSVVTVPSSSLGTQTYICNVNHKPSNTKVDKKVEPKSCDKTHTCPPCPAPEAAGGPSVFLFPPKPKDTLMISRTPEVTCVVVSVSHEDPEVKFNWYVDGVEVHNAKTKPREEQYNSTYRVVSVLTVLHQDWLNGKEYKCKVSNKALPAPIEKTISKAKGQPREPQVYVYPPSRDELTKNQVSLTCLVKGFYPSDIAVEWESNGQPENNYKTTPPVLDSDGSFALVSKLTVDKSRWQQGNVFSCSVMHEALHNHYTQKSLSLSPGGGG[about 120 residues not shown]
light: B3 light
heavy 2: B2 heavy 2 with G92K, Y93H
Consider B4, for which the Kd was 0.05 nM in the assay with Human mesothelin [6], 31 nM in the assay with Human CD3 (recombinant) [2] and 5.1 nM in the assay with Human PD-L1 [3].

B5: v38443 (other)
heavy 1: DIQMTQSPSSLSASVGDRVTITCSASSSVSYMHWYQQKSGKAPKLLIYDTSKLASGVPSRFSGSGSGTDFTLTISSLQPEDFATYYCQQWSKHPLTFGQGTKLEIKGGGGSGGGGSGGGGSGGGGSQVQLVQSGAEVKKPGASVKVSCKASGYSFTGYTMNWVRQAPGQGLEWMGLITPYNGASSYNQKFRGKATMTVDTSTSTVYMELSSLRSEDTAVYYCARGGYDGRGFDYWGQGTLVTVSSGGGGSGEVQLVESGGGLVQPGGSLRLSCAASGVTFNYYGMSWIRQAPGKGLEWVASITSSGGRIYYPDSVKGRFTISRENTQKTLYLQMNSLRAEDTAVYYCTLDGRDGWVAYWGQGTLVTVSSASTKGPSVFPLAPSSKSTSGGTAALGCLVKDYFPEPVTVSWNSGALTSGVHTFPAVLQSSGLYSLSSVVTVPSSSLGTQTYICNVNHKPSNTKVDKK[human IgG1 Fc with changes not shown]
light: B3 light
heavy 2: [about 120 residues not shown][about 250 residues not shown]
On to B5, for which the Kd in the assay with Human mesothelin [6] was 0.06 nM; with Human CD3 (recombinant) [2], 44 nM; with Human PD-L1 [3], 2.4 nM.
